# Some of the results follow.
# Assays:
# Test in all cases: glycan array binding signal (z-score within array); higher = stronger binding
# Details in all cases: glycan notation: IUPAC condensed, linker removed
# [1] = target: Neu5Ac(a2-3)Gal(b1-4)GlcNAc(b1-6)GalNAc
# In short: (§1)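 The Consortium for Functional Glycomics database supplied 3228 glycan arrays, of which those lacking an available protein sequence were dropped. The binding signal, a within-array Z-score, was averaged across arrays of the same protein sequence and across linkers. Negative scores can be read as non-binding.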
# [2] = target: Neu5Ac(a2-3)Gal(b1-4)GlcNAc(b1-6)[Gal(b1-3)]GalNAc
# In short: as §1
# [3] = target: Neu5Ac(a2-3)Gal(b1-4)GlcNAc(b1-6)[Neu5Ac(a2-3)Gal(b1-3)]GalNAc
# In short: as §1
# [4] = target: Neu5Ac(a2-3)Gal(b1-4)GlcNAc6S
# In short: as §1
# [5] = target: Neu5Ac(a2-3)Gal(b1-4)[Fuc(a1-3)]GlcNAc
# In short: as §1
# [6] = target: Neu5Ac(a2-3)Gal(b1-4)[Fuc(a1-3)]GlcNAc(b1-2)Man
# In short: as §1
# [7] = target: Neu5Ac(a2-3)Gal(b1-4)[Fuc(a1-3)]GlcNAc(b1-3)Gal
# In short: as §1
# [8] = target: Neu5Ac(a2-3)Gal(b1-4)[Fuc(a1-3)]GlcNAc(b1-3)Gal(b1-4)GlcNAc
# In short: as §1
# [9] = target: Neu5Ac(a2-3)Gal(b1-4)[Fuc(a1-3)]GlcNAc(b1-3)Gal(b1-4)[Fuc(a1-3)]GlcNAc(b1-3)Gal(b1-4)[Fuc(a1-3)]GlcNAc
# In short: as §1
# [10] = target: Neu5Ac(a2-3)Gal(b1-4)[Fuc(a1-3)]GlcNAc(b1-3)GalNAc
# In short: as §1
# [11] = target: Neu5Ac(a2-3)Gal(b1-4)[Fuc(a1-3)]GlcNAc(b1-6)[Gal(b1-3)]GalNAc
# In short: as §1
# [12] = target: Neu5Ac(a2-3)Gal(b1-4)[Fuc(a1-3)]GlcNAc(b1-6)[Neu5Ac(a2-3)Gal(b1-3)]GalNAc
# In short: as §1
# [13] = target: Neu5Ac(a2-3)Gal(b1-4)[Fuc(a1-3)]GlcNAc6S
# In short: as §1
# [14] = target: Neu5Ac(a2-3)Gal6S(b1-4)GlcNAc
# In short: as §1
# [15] = target: Neu5Ac(a2-3)Gal6S(b1-4)[Fuc(a1-3)]GlcNAc
# In short: as §1
# Neu5Ac(a2-3)GalNAc = target: Neu5Ac(a2-3)GalNAc
# In short: as §1
# [16] = target: Neu5Ac(a2-3)GalNAc(b1-4)GlcNAc
# In short: as §1
# [17] = target: Neu5Ac(a2-3)[GalNAc(b1-4)]Gal(b1-4)Glc
# In short: as §1
# [18] = target: Neu5Ac(a2-3)[GalNAc(b1-4)]Gal(b1-4)GlcNAc
# In short: as §1
# [19] = target: Neu5Ac(a2-3)[GalNAc(b1-4)]Gal(b1-4)GlcNAc(b1-3)GalNAc
# In short: as §1
# [20] = target: Neu5Ac(a2-3)[Neu5Ac(a2-6)]GalNAc
# In short: as §1
# Neu5Ac(a2-6)Gal = target: Neu5Ac(a2-6)Gal
# In short: as §1
# [21] = target: Neu5Ac(a2-6)Gal(b1-3)GlcNAc(b1-3)[Gal(b1-4)GlcNAc(b1-6)]Gal(b1-4)Glc
# In short: as §1
# Neu5Ac(a2-6)Gal(b1-4)Glc = target: Neu5Ac(a2-6)Gal(b1-4)Glc
# In short: as §1
# [22] = target: Neu5Ac(a2-6)Gal(b1-4)GlcNAc
# In short: as §1
# [23] = target: Neu5Ac(a2-6)Gal(b1-4)GlcNAc(b1-2)Man
# In short: as §1
# [24] = target: Neu5Ac(a2-6)Gal(b1-4)GlcNAc(b1-2)Man(a1-3)Man(b1-4)GlcNAc(b1-4)GlcNAc
# In short: as §1
# [25] = target: Neu5Ac(a2-6)Gal(b1-4)GlcNAc(b1-2)Man(a1-3)[Gal(b1-4)GlcNAc(b1-2)Man(a1-6)]Man(b1-4)GlcNAc(b1-4)GlcNAc
# In short: as §1
# [26] = target: Neu5Ac(a2-6)Gal(b1-4)GlcNAc(b1-2)Man(a1-3)[GlcNAc(b1-2)Man(a1-6)]Man(b1-4)GlcNAc(b1-4)GlcNAc
# In short: as §1
# [27] = target: Neu5Ac(a2-6)Gal(b1-4)GlcNAc(b1-2)Man(a1-3)[GlcNAc(b1-4)][Neu5Ac(a2-6)Gal(b1-4)GlcNAc(b1-2)Man(a1-6)]Man(b1-4)GlcNAc(b1-4)GlcNAc
# In short: as §1
# [28] = target: Neu5Ac(a2-6)Gal(b1-4)GlcNAc(b1-2)Man(a1-3)[Man(a1-6)]Man(b1-4)GlcNAc(b1-4)GlcNAc
# In short: as §1
# [29] = target: Neu5Ac(a2-6)Gal(b1-4)GlcNAc(b1-2)Man(a1-3)[Neu5Ac(a2-3)Gal(b1-4)GlcNAc(b1-2)Man(a1-6)]Man(b1-4)GlcNAc(b1-4)GlcNAc
# In short: as §1
# [30] = target: Neu5Ac(a2-6)Gal(b1-4)GlcNAc(b1-2)Man(a1-3)[Neu5Ac(a2-6)Gal(b1-4)GlcNAc(b1-2)Man(a1-6)]Man(b1-4)GlcNAc(b1-4)GlcNAc
# In short: as §1
# [31] = target: Neu5Ac(a2-6)Gal(b1-4)GlcNAc(b1-2)Man(a1-3)[Neu5Ac(a2-6)Gal(b1-4)GlcNAc(b1-2)Man(a1-6)]Man(b1-4)GlcNAc(b1-4)[Fuc(a1-6)]GlcNAc
# In short: as §1
# [32] = target: Neu5Ac(a2-6)Gal(b1-4)GlcNAc(b1-2)Man(a1-6)Man(b1-4)GlcNAc(b1-4)GlcNAc
# In short: as §1
# [33] = target: Neu5Ac(a2-6)Gal(b1-4)GlcNAc(b1-2)Man(a1-6)[Gal(b1-4)GlcNAc(b1-2)Man(a1-3)]Man(b1-4)GlcNAc(b1-4)GlcNAc
# In short: as §1
# [34] = target: Neu5Ac(a2-6)Gal(b1-4)GlcNAc(b1-2)Man(a1-6)[GlcNAc(b1-2)Man(a1-3)]Man(b1-4)GlcNAc(b1-4)GlcNAc
# In short: as §1
# [35] = target: Neu5Ac(a2-6)Gal(b1-4)GlcNAc(b1-2)Man(a1-6)[Man(a1-3)]Man(b1-4)GlcNAc(b1-4)GlcNAc
# In short: as §1
# [36] = target: Neu5Ac(a2-6)Gal(b1-4)GlcNAc(b1-2)[Neu5Ac(a2-6)Gal(b1-4)GlcNAc(b1-4)]Man(a1-3)[GlcNAc(b1-4)][Neu5Ac(a2-6)Gal(b1-4)GlcNAc(b1-2)[Neu5Ac(a2-6)Gal(b1-4)GlcNAc(b1-6)]Man(a1-6)]Man(b1-4)GlcNAc(b1-4)GlcNAc
# In short: as §1
# [37] = target: Neu5Ac(a2-6)Gal(b1-4)GlcNAc(b1-2)[Neu5Ac(a2-6)Gal(b1-4)GlcNAc(b1-4)]Man(a1-3)[GlcNAc(b1-4)][Neu5Ac(a2-6)Gal(b1-4)GlcNAc(b1-4)Man(a1-6)]Man(b1-4)GlcNAc(b1-4)GlcNAc
# In short: as §1
# [38] = target: Neu5Ac(a2-6)Gal(b1-4)GlcNAc(b1-2)[Neu5Ac(a2-6)Gal(b1-4)GlcNAc(b1-6)]Man(a1-6)[Neu5Ac(a2-6)Gal(b1-4)GlcNAc(b1-2)Man(a1-3)][GlcNAc(b1-4)]Man(b1-4)GlcNAc(b1-4)GlcNAc
# In short: as §1
# [39] = target: Neu5Ac(a2-6)Gal(b1-4)GlcNAc(b1-3)Gal(b1-3)GlcNAc
# In short: as §1
# [40] = target: Neu5Ac(a2-6)Gal(b1-4)GlcNAc(b1-3)Gal(b1-4)GlcNAc
# In short: as §1
# [41] = target: Neu5Ac(a2-6)Gal(b1-4)GlcNAc(b1-3)Gal(b1-4)GlcNAc(b1-2)Man(a1-3)[Neu5Ac(a2-6)Gal(b1-4)GlcNAc(b1-3)Gal(b1-4)GlcNAc(b1-2)Man(a1-6)]GalNAc
# In short: as §1
# [42] = target: Neu5Ac(a2-6)Gal(b1-4)GlcNAc(b1-3)Gal(b1-4)GlcNAc(b1-3)Gal(b1-4)GlcNAc
# In short: as §1
binder,measurement,setting,value
EULS2 M2 (Oryza sativa) (protein) MVYCRANPNYAMTARNGAVVLAPANPKDEYQHWIKDMRWSTSIKDEEGYPAFALVNKATGQAIKHSLGQSHPVRLVPYNPEVMDESVLWTESRDVGNGFRCIRMVNNIYLNFDAFHGDKYHGGVRDGTDIVLWKLCEGDSQRWKIQPYYILEQKLISEEDLNSAVDHHHHHH,glycan array binding signal (z-score),[1],0.243
same,glycan array binding signal (z-score),[2],-0.583
same,glycan array binding signal (z-score),[3],-0.495
same,glycan array binding signal (z-score),[4],-0.616
same,glycan array binding signal (z-score),[5],-0.305
same,glycan array binding signal (z-score),[6],-0.102
same,glycan array binding signal (z-score),[7],-0.23
same,glycan array binding signal (z-score),[8],-0.283
same,glycan array binding signal (z-score),[9],-0.216
same,glycan array binding signal (z-score),[10],-0.545
same,glycan array binding signal (z-score),[11],-0.019
same,glycan array binding signal (z-score),[12],2.53
same,glycan array binding signal (z-score),[13],-0.153
same,glycan array binding signal (z-score),[14],-0.449
same,glycan array binding signal (z-score),[15],-0.308
same,glycan array binding signal (z-score),Neu5Ac(a2-3)GalNAc,-0.307
same,glycan array binding signal (z-score),[16],-0.223
same,glycan array binding signal (z-score),[17],-0.362
same,glycan array binding signal (z-score),[18],-0.347
same,glycan array binding signal (z-score),[19],-0.241
same,glycan array binding signal (z-score),[20],-0.612
same,glycan array binding signal (z-score),Neu5Ac(a2-6)Gal,-1.17
same,glycan array binding signal (z-score),[21],-0.511
same,glycan array binding signal (z-score),Neu5Ac(a2-6)Gal(b1-4)Glc,-0.175
same,glycan array binding signal (z-score),[22],-0.4
same,glycan array binding signal (z-score),[23],-0.673
same,glycan array binding signal (z-score),[24],0.27
same,glycan array binding signal (z-score),[25],-0.121
same,glycan array binding signal (z-score),[26],0.47
same,glycan array binding signal (z-score),[27],-0.19
same,glycan array binding signal (z-score),[28],1.57
same,glycan array binding signal (z-score),[29],-0.231
same,glycan array binding signal (z-score),[30],0.002
same,glycan array binding signal (z-score),[31],-0.091
same,glycan array binding signal (z-score),[32],-0.423
same,glycan array binding signal (z-score),[33],-0.702
same,glycan array binding signal (z-score),[34],0.472
same,glycan array binding signal (z-score),[35],0.405
same,glycan array binding signal (z-score),[36],0.292
same,glycan array binding signal (z-score),[37],-0.758
same,glycan array binding signal (z-score),[38],-0.066
same,glycan array binding signal (z-score),[39],-0.207
same,glycan array binding signal (z-score),[40],-0.214
same,glycan array binding signal (z-score),[41],-0.24
same,glycan array binding signal (z-score),[42],-0.404

# — the supplement of paper PMC8728848
